PubChem BioAssay (NCATS)
This list was built around the results that the source calls inconclusive (neither active nor inactive); the mix of calls is not that of the screen. Potencies of inconclusive entries are left out as doubtful fits. The source made the active and inactive calls. Calls come from the whole dose curve; as a rule, active = well fitted inhibition curve with a large enough effect; inconclusive = small, poorly fitted or top-dose-only effect; inactive = flat fitted curve, though single readings scatter.

Experiment: BET inhibitor-based combinations targeting novel dependencies in MECOM-rearranged (r) AML: AML-191 cell line (AID 2202236; note: nearly all actives have a fitted effect of over 35% in size;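 for viability (% of control): plate controls were vehicle wells for no effect and wells without cells for full effect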)
Conditions: AML-191 viability, CellTiter-Glo luminescence, 48 h; series mostly up to 46 µM; viability (% of control): at the top concentration
Procedure, shortened: (§1)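 Cells were plated at 500 per well and exposed to an 11-point dose series of each drug for 48 hr. Viability was measured by CellTiter-Glo luminescence, normalized to DMSO and empty-well controls, and summarized as AUC and per-cell-line Z-AUC.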
Potency is the fitted concentration of half-maximal effect; tags give direction and shape of the fitted curve.

SMILES	Potency	viability (% of control)
CC(=O)O[C@@]12CO[C@@H]1C[C@H](O)[C@@]1(C)C(=O)[C@H](O)C3=C(C)[C@@H](O)C[C@@](O)([C@@H](OC(=O)c4ccccc4)[C@H]21)C3(C)C	inconclusive [inhibitor, partial curve]	–
CN1C(=O)[C@@H](NC(=O)[C@H](CCC(F)(F)F)[C@H](CCC(F)(F)F)C(N)=O)N=C(c2ccccc2)c2ccccc21	–	inactive: 111%
O=c1cccc2n1CC1CNC[C@H]2C1	–	inactive: 106%
Cn1c(/C=C/CO)c(CO)c2c1C(=O)C=C(N1CC1)C2=O	inconclusive [inhibitor, partial curve, poor fit]	–
C=C1C[C@@H]2[C@H](CC[C@]3(C)C(=O)CC[C@@H]23)[C@@]2(C)C=CC(=O)C=C12	inconclusive [inhibitor, partial curve]	–
O=C(CBr)N1CC([N+](=O)[O-])([N+](=O)[O-])C1	inconclusive [inhibitor, partial curve]	–
CC(C)(NC(=O)O[C@@H]1CN2CCC1CC2)c1csc(-c2ccc(F)cc2)n1	inconclusive [inhibitor, partial curve, poor fit]	–
Cc1ccccc1-n1c(Cn2ncc3c(N)ncnc32)nc2cccc(C)c2c1=O	–	inactive: 93.2%
C[C@H](Nc1ncnc2nc[nH]c12)c1nc2ccc(F)cc2c(=O)n1-c1ccccc1	active: 5.25 µM	–
C[C@]12Cc3cn[nH]c3C[C@@H]1CC[C@@H]1[C@@H]2CC[C@@]2(C)[C@H]1CC[C@]2(C)O	–	inactive: 91.9%
C[C@@H](C1CC[C@@]2(O)C3=CC(=O)[C@@H]4C[C@@H](O)[C@@H](O)C[C@]4(C)[C@H]3CC[C@]12C)[C@H](O)CCC(C)(C)O (some centres undefined)	–	inactive: 102%
CO/C1=C/C(C)=C\[C@@H](C)[C@@H](O)[C@@H](C)C/C(C)=C\C=C/[C@H](OC)[C@@H]([C@@H](C)[C@@H](O)[C@H](C)[C@@]2(O)C[C@@H](O)[C@H](C)[C@@H](C(C)C)O2)OC1=O	inconclusive [inhibitor, full curve]	–
C#C[C@]1(O)C=C[C@H]2[C@@H]3CCC4=CC(=O)CC[C@@H]4[C@H]3CC[C@@]21CC	–	inactive: 86.2%
CN1[C@H]2CC(O)C[C@H]1[C@H]1O[C@H]12 (some centres undefined)	–	inactive: 117%

Experiment: BET inhibitor-based combinations targeting novel dependencies in MECOM-rearranged (r) AML: AML-194 cell line (AID 2202237; note: nearly all actives have a fitted effect of over 40% in size;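 for viability (% of control): plate controls were vehicle wells for no effect and wells without cells for full effect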)
Conditions: AML-194 (MECOM-r AML) viability, CellTiter-Glo, 48 h; series mostly up to 46 µM; viability (% of control): at the top concentration
Procedure, shortened: as §1

SMILES	viability (% of control)	Potency
C[C@H]1[C@H](O)[C@@H](C)/C=C/C=C/CC/C=C/C=C/C=C/C=C/[C@H](O[C@@H]2O[C@H](C)[C@@H](O)[C@H](N)[C@@H]2O)C[C@@H]2O[C@](O)(C[C@@H](O)[C@H](O)CC[C@@H](O)C[C@@H](O)C[C@@H](O)CC(=O)O[C@H]1C)C[C@H](O)[C@H]2C(=O)O	inactive: 88.1%	–
CN1C(=O)[C@@H](NC(=O)[C@H](CCC(F)(F)F)[C@H](CCC(F)(F)F)C(N)=O)N=C(c2ccccc2)c2ccccc21	inactive: 118%	–
CCCCCC[C@H]1C(=O)O[C@H](C)[C@H](NC(=O)c2cccc(NC=O)c2O)C(=O)O[C@@H](C)[C@@H]1OC(=O)CC(C)C	inactive: 95.9%	–
CCNC(=O)CC1N=C(c2ccc(Cl)cc2)c2cc(OC)ccc2-n2c(C)nnc21 (centres undefined)	inactive: 72.4%	–
C=C1C[C@@H]2[C@H](CC[C@]3(C)C(=O)CC[C@@H]23)[C@@]2(C)C=CC(=O)C=C12	–	inconclusive [inhibitor, single point]
CCOC(=O)c1c(C(C#N)=CN)c2ccc(Cl)c(Cl)c2n1C	inactive: 94.4%	–
Cc1ccccc1-n1c(Cn2ncc3c(N)ncnc32)nc2cccc(C)c2c1=O	inactive: 92.3%	–
O=C(Oc1ccc([N+](=O)[O-])cc1)N1CCN(Cc2cccc(Oc3ccccc3)c2)CC1	inactive: 96.4%	–
CO/C1=C/C(C)=C\[C@@H](C)[C@@H](O)[C@@H](C)C/C(C)=C\C=C/[C@H](OC)[C@@H]([C@@H](C)[C@@H](O)[C@H](C)[C@@]2(O)C[C@@H](O)[C@H](C)[C@@H](C(C)C)O2)OC1=O	–	inconclusive [inhibitor, full curve]
C/C(O)=C(\C#N)C(=O)Nc1cc(Br)ccc1Br	inactive: 100%	–
